{
  "source": "PubChem BioAssay AID995",
  "about": "(National Center for Advancing Translational Sciences (NCATS), 2007)",
  "note": "Screen size: about 72,000 compounds; about 710 (0.99%) were called active. Inconclusive results, whose numbers are uncertain, are shown with a selection of clear calls. The call rests on the fitted dose curve; in most records, active means well fitted inhibition curve with a large enough effect; inconclusive means small, poorly fitted or top-dose-only effect; inactive means no such curve, though single readings can be large or run the other way. No potency is given beside an inconclusive call; the fits are too rough. Some structures have more than one record in an assay (separate samples or runs), and their calls can disagree. On the % scale 0 is the no-effect control and ±100 the full control effect; potency means the concentration at half of the fitted maximal effect; tags describe the fitted curve by direction and shape.",
  "data": [
    {"assay": "qHTS Assay for Inhibitors of the ERK Signaling Pathway using a Homogeneous Screening Assay; further: nearly all actives have a fitted effect of over 55% in size", "conditions": "HEK293-V1b, vasopressin-stimulated pERK AlphaScreen; activity, negative = inhibition: at 57.5 µM (top of the series) unless noted", "outline": "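Phosphorylated ERK1/2 detected via AlphaScreen bead proximity in lysates of V1b-expressing HEK293 cells given 25 nM vasopressin for 5 min after 30 min compound exposure (37 °C). AC50 from Hill equation; basal DMSO 0%, vasopressin 100%.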", "values": [
      {"smiles": "C[n+]1cc2c3c(ccc2c2ccc4cc5c(cc4c21)OCO5)OCO3", "Potency": "active: 25.1 µM"},
      {"smiles": "c1ccc(CNc2nc(-c3ccc4c(c3)OCO4)nc3ccccc23)cc1", "Potency": "active: 20 µM"},
      {"smiles": "O=c1c2ccccc2nnn1CSc1nnc(-c2ccc3c(c2)OCO3)o1", "activity, negative = inhibition": "inactive: 4.09%"},
      {"smiles": "O=c1cnc2cnc(N3CCOCC3)nc2n1Cc1ccc(F)cc1", "Potency": "inconclusive [inhibitor, partial curve]"},
      {"smiles": "Cc1ccc(S(=O)(=O)NC(CC(=O)O)c2ccccc2)cc1", "note": "(stereo not drawn)", "activity, negative = inhibition": "inactive: -0.0096%"},
      {"smiles": "Cc1cccc(-c2cc(=O)c3cc(C)ccc3o2)c1", "Potency": "inconclusive [inhibitor, partial curve, poor fit]"},
      {"smiles": "Cc1ccc(NC(=O)c2noc3c2CCCCC3)cc1", "activity, negative = inhibition": "inactive: 12.9%"},
      {"smiles": "O=C1c2ccccc2C(Nc2ccc(F)c(Cl)c2)N1Cc1ccco1", "note": "(stereo not drawn)", "Potency": "inconclusive [inhibitor, single point]"},
      {"smiles": "COc1ccc(Cn2c(-c3ccco3)nc3oc4cc(OC)ccc4c(=O)c3c2=O)cc1", "activity, negative = inhibition": "inactive: -15.2%"},
      {"smiles": "O=C(NCCCN1CCCC1=O)c1ccc2c(c1)ncn2C1CCCCC1", "Potency": "inconclusive [inhibitor, partial curve]"},
      {"smiles": "O=C(Nc1ccc(Cl)cc1C(=O)Nc1ccncc1)c1ccco1", "Potency": "inconclusive [inhibitor, partial curve]"},
      {"smiles": "COc1ccc(C2NC(=O)NC3=C2CCc2ccccc23)cc1", "note": "(stereo not drawn)", "activity, negative = inhibition": "inactive: 4.74%"},
      {"smiles": "Cc1nn(Cc2ccccc2)c(C)c1NC(=O)c1cc(-c2ccco2)on1", "Potency": "inconclusive [inhibitor, partial curve, poor fit]"},
      {"smiles": "COc1ccc(NC(=O)CNS(=O)(=O)c2ccc3nc(C)sc3c2)c(OC)c1", "Potency": "inconclusive [inhibitor, single point]"},
      {"smiles": "O=C1c2ccccc2-c2ncnc3c(N4CCOCC4)cc(N4CCOCC4)c1c23", "Potency": "inconclusive [inhibitor, partial curve]"},
      {"smiles": "COc1cccc2sc(NC(=O)c3ccc(S(=O)(=O)N4CCOCC4)cc3)nc12", "Potency": "inconclusive [inhibitor, single point]"},
      {"smiles": "COC(=O)c1c(F)c(F)c(NCCO)c(F)c1F", "Potency": "inconclusive [inhibitor, full curve, poor fit]"},
      {"smiles": "N#CCCN(Cc1cccnc1)C(=O)Nc1cccc(Cl)c1", "activity, negative = inhibition": "inactive: -9.98%"},
      {"smiles": "Cc1sc2ncnc(N3CCN(c4ncccn4)CC3)c2c1C", "Potency": "inconclusive [inhibitor, single point]"},
      {"smiles": "N#Cc1c(-c2ccccc2)cc(-c2ccco2)c(C#N)c1N", "Potency": "inconclusive [inhibitor, single point]"},
      {"smiles": "Cc1ccc(Nc2nc(N)nc(CN3CCCCCC3)n2)cc1", "Potency": "inconclusive [inhibitor, single point]"},
      {"smiles": "Nc1nc2ccc(C(=O)Nc3ccccc3)cc2s1", "activity, negative = inhibition": "inconclusive: -31.5% [inhibitor]"},
      {"smiles": "O=C(CSc1nc2ccsc2c(=O)n1Cc1ccccc1)NCc1ccco1", "Potency": "inconclusive [inhibitor, partial curve]"},
      {"smiles": "c1ccc(Cn2nnnc2C(c2ccccn2)N2CCOCC2)cc1", "note": "(stereo not drawn)", "activity, negative = inhibition": "inactive: 3.62%"},
      {"smiles": "COc1cccc(-c2nnc(SCC(=O)OC(C)C)n2Cc2ccco2)c1", "activity, negative = inhibition": "inactive: 8.09%"},
      {"smiles": "N=C(N)SC(c1ccccc1)c1ccccc1", "Potency": "inconclusive [inhibitor, partial curve]"},
      {"smiles": "COc1ccc(NC(=O)c2ccco2)c(NC(=O)Cc2cccs2)c1", "Potency": "inconclusive [inhibitor, partial curve]"},
      {"smiles": "CCCCc1cc(O)c(CCCC)c(O)c1", "Potency": "inconclusive [inhibitor, single point]"},
      {"smiles": "COc1ccc(N2C(=O)CSC23CCCCC3)cc1", "Potency": "inconclusive [inhibitor, partial curve, poor fit]"},
      {"smiles": "O=C(CCCc1nc(-c2ccccc2)no1)NCc1cccnc1", "Potency": "inconclusive [inhibitor, full curve, poor fit]"},
      {"smiles": "CN(Cc1ccco1)c1ncnc2ccc(-c3ccccc3Cl)cc12", "Potency": "inconclusive [inhibitor, single point]"},
      {"smiles": "C=CCNCc1cccn1-c1ccccc1", "activity, negative = inhibition": "inconclusive: -41.4% [inhibitor]"},
      {"smiles": "C/C=C/Cn1c(SCc2ccc(Cl)cc2)nc2c1c(=O)[nH]c(=O)n2C", "activity, negative = inhibition": "inactive: 10.6%"},
      {"smiles": "COc1ccc(OC2C=CC(c3ccccc3)OC2CO)c(C(C)=O)c1", "note": "(stereo not drawn)", "activity, negative = inhibition": "inactive: 30.6% [at 11.5 µM]"},
      {"smiles": "COCCNc1cc(-c2ccccc2C(F)(F)F)ncn1", "activity, negative = inhibition": "inactive: 1.28%"},
      {"smiles": "CCn1c(N2CCN(S(=O)(=O)c3ccccc3C(F)(F)F)CC2)nc2ccccc21", "Potency": "active: 31.6 µM"},
      {"smiles": "COCC(=O)N1CCC[C@@]2(CCN(Cc3ccc(C#N)cc3)C2)C1", "activity, negative = inhibition": "inactive: -6.72%"},
      {"smiles": "CC(C)N=c1cc2n(-c3ccc(Cl)cc3)c3ccccc3nc-2cc1Nc1ccc(Cl)cc1", "Potency": "inconclusive [inhibitor, partial curve, poor fit]"},
      {"smiles": "C=CC[C@@H]1C=C[C@@H](O/N=C\\c2ccc(C(=O)N3[C@H](c4ccc(C)cc4)[C@@H](C)CC[C@H]3C(=O)OC)cc2)[C@@H](CO)O1", "activity, negative = inhibition": "inactive: 23.5% [at 11.5 µM]"},
      {"smiles": "Cc1ccc(-c2csc(N(CCCN3CCOCC3)C(=O)c3ccco3)n2)cc1", "Potency": "inconclusive [inhibitor, single point]"},
      {"smiles": "O=C(NCc1cccc(Cl)c1)c1cccnc1", "activity, negative = inhibition": "inactive: -5.5%"},
      {"smiles": "O=c1[nH]c(N2CCc3ccccc3C2)nc2c1CCC2", "activity, negative = inhibition": "inactive: -2.42%"},
      {"smiles": "O=C(c1ccncc1)N1CCC2(CCCN(Cc3ccncc3)C2)CC1", "activity, negative = inhibition": "inactive: 4.89%"},
      {"smiles": "O=c1oc2c3c4c(cc2s1)CCCN4CCC3", "Potency": "inconclusive [inhibitor, partial curve]"},
      {"smiles": "COc1ccccc1C(=O)NCC(c1cccnc1)N(C)C", "note": "(stereo not drawn)", "Potency": "inconclusive [inhibitor, single point]"},
      {"smiles": "Cc1cc(C(=O)Nc2ccc3c(c2)OCCO3)c(C)o1", "Potency": "inconclusive [inhibitor, single point]"},
      {"smiles": "O=C(NCc1ccccn1)c1cc(-c2ccccc2)on1", "Potency": "inconclusive [inhibitor, single point]"},
      {"smiles": "COc1ccc(S(=O)(=O)N(CC(=O)N2CCN(c3ccccc3OC)CC2)c2ccccc2)cc1", "Potency": "inconclusive [inhibitor, single point]"}
    ]}
  ]
}
